The source of these data is patent US20260337278 (published 2026).

What all share (assay): BLI
(BLI is a label-free optical method that tracks binding on a fibre tip over time.)

Test [1] addresses T1, EGFR (wild-type, His-tagged or biotinylated) (human, UniProt P00533).
The target in test [2] is T2, EGFRvIII (human, UniProt P00533).
Test [3] concerns the target T1, EGFR (wild-type, His-tagged or …). This is another data set of the same source.
For test [4], the target named is T2, EGFRvIII. This is another data set of the same source.

Like-named read-outs stand apart in the source and are kept apart here.

B1: SI-95X43 (antibody)
chain 1: DVQLQESGPSLVKPSQSLSLTCTVTGYSITSDFAWNWIRQFPGNKLEWMGYISYSGNTRYNPSLKSRISITRDTSKNQFFLQLNSVTIEDTATYYCVTAGRGFPYWGQGTLVTVSAASTKGPSVFPLAPSSKSTSGGTAALGCLVKDYFPEPVTVSWNSGALTSGVHTFPAVLQSSGLYSLSSVVTVPSSSLGTQTYICNVNHKPSNTKVDKRV[human IgG1 Fc omitted here]
chain 2: not shown
Turning to B1, the Kd (as a rule, a measure of binding affinity in units of concentration) in test [1] was found to be 1.18 nM; with EGFRvIII [2], 0.838 nM.

B2: SI-95X36 (antibody)
chain 1: B1 chain 1
chain 2: not shown
As for B2, the Kd turned out to be 1.44 nM in test [3] and 0.401 nM with EGFRvIII [4].
